Test results taken from PubChem BioAssay AID1030 (National Center for Advancing Translational Sciences (NCATS), 2008).
Several values for one entry are separate records, joined by “and”; a condition that tells them apart may be missing. Identical values can stand only once. Among all 220,000 compounds or so, about 16,000 (7.3%) were called active. The shares of active, inactive and inconclusive entries below differ from those in the screen. Calls follow the shape of the dose curve; as a rule, active = well fitted inhibition curve with a large enough effect (not every such curve was filed as active); inconclusive = small, poorly fitted or top-dose-only effect, or another doubt; inactive = no such curve, though single readings can be large or run the other way. Potencies beside an inconclusive call are fits to weak or partial responses and may not hold up.

These molecules were tested against Aldehyde dehydrogenase 1A1 (Homo sapiens) (UniProt P00352) (assay: qHTS Assay for Inhibitors of Aldehyde Dehydrogenase 1 (ALDH1A1)). Settings: Purified ALDH1A1, NADH fluorescence, propionaldehyde substrate; series mostly up to 75.3 µM.
Sequence of UniProt P00352 (P00352 whole entry, looked up): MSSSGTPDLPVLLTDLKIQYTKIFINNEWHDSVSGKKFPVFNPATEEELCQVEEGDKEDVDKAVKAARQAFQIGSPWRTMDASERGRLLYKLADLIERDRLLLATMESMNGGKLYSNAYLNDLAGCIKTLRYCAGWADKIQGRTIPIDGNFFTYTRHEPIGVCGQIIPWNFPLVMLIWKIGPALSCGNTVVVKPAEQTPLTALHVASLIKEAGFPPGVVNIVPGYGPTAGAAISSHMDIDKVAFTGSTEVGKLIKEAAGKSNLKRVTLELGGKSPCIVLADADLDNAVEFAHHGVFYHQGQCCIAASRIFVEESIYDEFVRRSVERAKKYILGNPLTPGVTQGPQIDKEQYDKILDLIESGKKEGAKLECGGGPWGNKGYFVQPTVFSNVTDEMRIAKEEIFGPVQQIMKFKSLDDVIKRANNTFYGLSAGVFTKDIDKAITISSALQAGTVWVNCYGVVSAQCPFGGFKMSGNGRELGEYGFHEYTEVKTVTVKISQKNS
Potency is read from the fitted curve at half-maximal effect; tags tell the direction and shape of the fitted curve.

SMILES	Potency
Cc1nnc(SCC(=O)Nc2ccc(-c3nc4ccccc4s3)cc2)s1	inconclusive: 8.91 µM [inhibitor, single point]
O=C(NCc1ccc(F)cc1)c1cc2c(s1)CCCC2	inconclusive: 39.8 µM [inhibitor, single point]
Cc1cc(NC(=O)Cc2cccs2)no1	inconclusive: 39.8 µM [inhibitor, single point]
COC(=O)c1nnn(-c2nonc2N)c1CN1CCc2ccccc21	inconclusive: 25.1 µM [inhibitor, single point]
CCC(=O)Nc1ccc(S(=O)(=O)NCc2ccco2)cc1	inactive
CC(C)C(CCNC(=O)CC(Cc1ccccc1)c1ccco1)c1ccco1 (stereo not drawn)	inconclusive: 31.6 µM [inhibitor, partial curve]
COc1cc(C)nc(N2CCC(C(=O)NC3CCCCC3)CC2)n1	inconclusive: 44.7 µM [inhibitor, single point]
CC(=O)c1ccc(NC(=S)N2CC(C)CC(C)C2)cc1 (stereo not drawn)	inconclusive: 31.6 µM [inhibitor, single point]
Cc1oc(-c2ccc3c(c2)OCCO3)cc1C(=O)NC(Cc1ccccc1)C(=O)O (stereo not drawn)	inconclusive: 39.8 µM [inhibitor, single point]
CC(C)COc1cccc(C(=O)NC(=S)NCc2cccnc2)c1	inconclusive: 39.8 µM [inhibitor, single point]
Cn1cc(C(=O)NC2CCCCCCC2)c(=O)c2cc(S(=O)(=O)N3CCCC3)ccc21	inconclusive: 3.16 µM [inhibitor, full curve]
CCCCn1c(-c2cccs2)nc2oc3ccccc3c(=O)c2c1=O	inconclusive: 7.94 µM [inhibitor, full curve]
CC(C(=O)Nc1ccc2nccnc2c1)N1C(=O)C2C3C=CC(C3)C2C1=O (stereo not drawn)	inconclusive: 28.2 µM [inhibitor, partial curve]
CCn1c(C)nc2cc(C(=O)NNC(=S)NC(=O)c3ccc(OC)cc3)ccc21	inactive
Cc1cccc(C)c1-n1c(C)cc(/C=N/NC(=O)CSc2ncccn2)c1C	active: 10 µM
COc1ccc(OC)c(-c2cc(C(=O)Nc3cc(C)n(Cc4ccc(Cl)cc4)n3)no2)c1	inconclusive: 35.5 µM [inhibitor, single point]
Cc1ccc2c(c1)c(-c1ccccc1)nc1nnnn12	inactive
CCOc1ccc(/C=N/NC(=O)Cc2csc(Nc3cccc(C(F)(F)F)c3)n2)c(OCC)c1	inconclusive: 39.8 µM [inhibitor, single point]
CC(=O)N1CCN(C(=S)c2cccc([N+](=O)[O-])c2)CC1	inactive
C=CCNC(N)=S	inconclusive: 39.8 µM [inhibitor, single point]
CC1(C)C(=O)Nc2ccccc2N1C(=O)COC(=O)CCSc1ccccc1	inconclusive: 39.8 µM [inhibitor, single point]
Cn1c(CSCc2ccc(Cl)cc2Cl)n[nH]c1=S	inconclusive: 1.41 µM [inhibitor, full curve]
COC(=O)C1CCN(CC(=O)Nc2sc3c(c2C#N)CCC3)CC1	inactive
COc1cc(C(=S)N2CCCC2)cc(OC)c1OC	inconclusive: 31.6 µM [inhibitor, single point]
CCCCCCC(=O)NC(Nc1ccc(S(N)(=O)=O)cc1)C(Cl)(Cl)Cl (stereo not drawn)	inactive

SMILES	Potency
Cn1c(=O)c(CCc2ccccc2)nc2cncnc21	inconclusive: 25.1 µM [inhibitor, single point]
Cc1cccc2cc(C(c3nnnn3Cc3ccccc3)N3CCN(c4ccccc4)CC3)c(=O)[nH]c12 (stereo not drawn)	inconclusive: 7.94 µM [inhibitor, partial curve]
COc1cccc(Cn2c(=O)sc3ccccc3c2=O)c1	inconclusive: 39.8 µM [inhibitor, single point]
CC(=O)OC1CC2C(C)(C)C(O)CC(O)[C@@]2(C)C2CC[C@@]3(C)C(=CC(=O)OC3c3ccoc3)[C@]12C (stereo partly drawn)	inconclusive: 39.8 µM [inhibitor, single point]
CCCNC(=O)CSc1nnc(-c2ccco2)n1C	inactive
Cc1ccc2nc3c(cc(C(=O)NCCCn4ccnc4)n3C)c(=O)n2c1	inconclusive: 28.2 µM [inhibitor, partial curve]
CCN1CCN(C(=O)C(C)Nc2ccc(OC)cc2OC)CC1 (stereo not drawn)	inconclusive: 39.8 µM [inhibitor, single point]
COC(=O)/C=C/c1cc(O)ccc1O	active: 28.2 µM
C=CCN1C(=O)C2(c3ccccc31)C1CCCC=C1C(C#N)=C(N)C2(C#N)C#N (stereo not drawn)	active: 10 µM
CCCCCCCCCCCCCCC[C@H](O)[C@H](N)CO	inactive
N#C/C(=C/c1ccc(N2CCOCC2)o1)c1ccc(Br)cc1	active: 15.8 µM
CC1(C)CC(=O)C2=C(C1)Nc1ccccc1N=C2	active: 1.78 µM
CCC(=O)Nc1nc(-c2ccc3c(c2)OCCO3)cs1	inconclusive: 28.2 µM [inhibitor, single point]
COc1cc(CC(=O)Nc2ccccc2N2CCCCC2)cc(OC)c1OC	inactive
CSc1nnc(-c2sc3cc(C(F)(F)F)cnc3c2-c2ccccc2)n1C	inconclusive: 28.2 µM [inhibitor, partial curve]
CCCOc1cccc(-c2cc(C(=O)NNC(=S)NCC)c3ccccc3n2)c1	inconclusive: 39.8 µM [inhibitor, single point]
Cc1cc(NC(=S)Nc2cccc3ccccc23)n[nH]1	active: 6.31 µM
COc1ccc(C(=O)NNC2=NCCCCC2)cc1	inconclusive: 11.2 µM [inhibitor, partial curve]
Cc1ccc(C)c(-c2ccc(C(=O)O)o2)c1	inconclusive: 79.4 µM [inhibitor, single point]
O=C(c1ccc(S(=O)(=O)NCc2ccco2)cc1)N1CCN(Cc2ccc3c(c2)OCO3)CC1	inactive
COc1ccc(CNC(=O)C(CCSC)NC(=O)c2ccco2)cc1 (stereo not drawn)	inactive
CCCCN(C)C(=O)c1nc2ccccn2c1CN1CCN(C(=O)c2cccs2)CC1	active: 6.31 µM
Cc1[nH]c2ccccc2c1/C=N/Nc1nncn1N	inconclusive: 39.8 µM [inhibitor, single point]
CC(=O)Nc1ccc(S(=O)(=O)NCCc2ccccc2)cc1	inconclusive: 35.5 µM [inhibitor, single point]
O=C1OC(=O)c2cc([N+](=O)[O-])ccc21	inconclusive: 39.8 µM [inhibitor, single point]

SMILES	Potency
COc1ccc(-c2cc(=O)c3cc(OC)ccc3o2)cc1	inconclusive: 8.91 µM [inhibitor, partial curve] and inconclusive: 3.16 µM [inhibitor, partial curve]
CCOC1CC(C)(C)NC(=S)N1 (stereo not drawn)	inactive
CCOC(=O)CNC(=O)Nc1ccccc1C(=O)OC	inconclusive: 44.7 µM [inhibitor, single point]
CCc1nnc(NC(=O)Cn2nnc(-c3ccccc3F)n2)s1	inactive
CCc1ccc(-c2csc3ncn(CC(=O)N4CCOCC4)c(=O)c23)cc1	inactive
COc1ccc(C(c2nnnn2Cc2cccs2)N2CCN(c3ccccc3)CC2)cc1OC (stereo not drawn)	active: 2 µM
CC(=O)COc1ccc2c(C)c(C)c(=O)oc2c1	inconclusive: 31.6 µM [inhibitor, partial curve]
CC(NC(=O)c1ccc(CS(=O)(=O)Cc2ccccc2F)o1)c1ccc2c(c1)OCCO2 (stereo not drawn)	inconclusive: 22.4 µM [inhibitor, single point]
O=[N+]([O-])c1cc(Cc2cc([N+](=O)[O-])c3cccnc3c2O)c(O)c2ncccc12	inconclusive: 7.94 µM [inhibitor, single point]
Cc1ccc(OC(=O)CCN2C(=O)c3ccccc3C2=O)cc1C	inconclusive: 20 µM [inhibitor, partial curve]
Cc1ccc(S(=O)(=O)c2c(N)n(/N=C/c3ccco3)c3nc4ccccc4nc23)cc1	inconclusive: 14.1 µM [inhibitor, partial curve]
Fc1ccc(NC(=S)Nc2cccnc2)cc1Cl	active: 28.2 µM
Cn1c(-c2ccc(F)cc2)cnc1NCc1cccc(F)c1	active: 6.31 µM
COc1ccc(CCN2C(=NC(=O)CCC(=O)O)SC3CS(=O)(=O)CC32)cc1OC (stereo not drawn)	active: 25.1 µM
CC(NC(=O)CCCCCN1C(=O)c2ccccc2C1=O)c1ccc2c(c1)CCCC2 (stereo not drawn)	inconclusive: 39.8 µM [inhibitor, single point]
Cc1ccc(NC(=O)CCNS(=O)(=O)c2ccccc2)c(C(=O)c2ccccc2)c1	inconclusive: 31.6 µM [inhibitor, single point]
COc1cc(C(=S)N2CCOCC2)ccc1OC(=O)/C=C/c1ccco1	inconclusive: 31.6 µM [inhibitor, single point]
CCCCOc1ccc(NC(=O)C2CC=CCC2C(=O)O)cc1 (stereo not drawn)	inactive
Cc1ccc(S(=O)(=O)NCC2CCC(C(=O)NCc3cccnc3)CC2)cc1 (stereo not drawn)	active: 6.31 µM
O=C(O)CCc1nc2ccccc2n(CCc2ccccc2)c1=O	inconclusive: 31.6 µM [inhibitor, partial curve]
COc1ccccc1C(=O)Nc1nc2cc3c(cc2s1)OCCO3	inconclusive: 22.4 µM [inhibitor, partial curve]
CC(=O)NC(Cc1c[nH]c2ccccc12)C(=O)OCC(=O)Nc1ccc2c(c1)OCO2 (stereo not drawn)	active: 5.01 µM
COc1ccc(C)cc1NC(=O)CNc1ccc(C(C)=O)cc1	inconclusive: 35.5 µM [inhibitor, single point]
